Whole data set: some 33,000 sequences, median “E-score (-0.5 to 0.5)” near -0.021, cut for the highest 2% near 0.32. The list shows a part of the results.
The sequences below were run against T1, Zap1 (UniProt P47043) (assay: PBM E-score (8-mer binding enrichment) (E-score (-0.5 to 0.5)); higher = stronger / more preferred TF binding; most listed sequences are background and not binding sites). Settings: protein concentration: 200 nM; construct: GST-full length.
T1 sequence: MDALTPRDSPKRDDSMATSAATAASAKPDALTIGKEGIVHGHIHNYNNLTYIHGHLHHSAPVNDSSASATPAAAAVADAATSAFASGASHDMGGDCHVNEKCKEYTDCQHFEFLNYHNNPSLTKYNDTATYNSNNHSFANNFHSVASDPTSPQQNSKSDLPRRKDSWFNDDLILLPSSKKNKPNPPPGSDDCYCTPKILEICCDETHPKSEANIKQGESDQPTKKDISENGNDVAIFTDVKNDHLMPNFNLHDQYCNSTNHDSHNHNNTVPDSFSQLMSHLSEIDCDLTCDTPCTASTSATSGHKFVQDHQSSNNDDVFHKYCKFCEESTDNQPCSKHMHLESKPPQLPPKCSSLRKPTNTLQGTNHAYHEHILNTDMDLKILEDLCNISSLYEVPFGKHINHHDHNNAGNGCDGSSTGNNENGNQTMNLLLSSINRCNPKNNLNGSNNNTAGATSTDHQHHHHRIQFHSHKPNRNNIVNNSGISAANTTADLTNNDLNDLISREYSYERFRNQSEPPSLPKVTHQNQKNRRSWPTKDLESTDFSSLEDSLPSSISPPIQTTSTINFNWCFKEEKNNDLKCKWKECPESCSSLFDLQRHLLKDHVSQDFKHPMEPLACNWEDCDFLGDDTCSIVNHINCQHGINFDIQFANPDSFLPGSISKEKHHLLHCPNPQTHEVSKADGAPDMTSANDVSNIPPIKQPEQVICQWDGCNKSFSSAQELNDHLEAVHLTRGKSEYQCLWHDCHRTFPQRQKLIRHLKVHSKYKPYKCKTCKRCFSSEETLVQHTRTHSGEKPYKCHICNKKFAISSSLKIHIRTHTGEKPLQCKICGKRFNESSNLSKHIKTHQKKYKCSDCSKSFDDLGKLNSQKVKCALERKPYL
Description: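 Universal 'all 10-mer' protein binding microarrays (Agilent AMADID 015681) probed with GST-tagged S. cerevisiae TFs (full-length or DBD) made by in vitro transcription/translation (PURExpress), about 100-200 nM. Bound TF was detected with fluorescent anti-GST. Each ungapped 8-mer (which stands for itself and its reverse complement) is scored by the PBM enrichment score (E-score), a modified Wilcoxon-Mann-Whitney statistic from -0.5 to +0.5, computed with the Universal PBM Analysis Suite. Scale: above 0.35 generally sequence-specific binding.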

Row | Sequence | PBM E-score
1 | CACTTGAC | -0.148
2 | GGGCACGA | -0.196
3 | AAGAGCCG | -0.248
4 | CGGTCCAC | 0.0093
5 | GCCCCGGC | -0.251
6 | AGAGACGC | -0.176
7 | CGGTTGAA | 0.221
8 | GCTATGCA | -0.101
9 | ATCGGAGG | -0.139
10 | ACATGCGG | -0.0584
11 | AGTGGAGG | -0.0201
12 | ACGCCGTG | -0.0258
13 | ACTGTAAT | -0.0954
14 | GTACAGGA | 0.0673
15 | ATTCTCAC | 0.0449
16 | CTAGAGCA | -0.219
17 | ATCTACTC | -0.105
18 | AACAGTGT | -0.111
19 | CGCGACAA | 0.181
20 | AGCCACAT | -0.00209
21 | CCCATTTA | 0.194
22 | CGACGATC | 0.0406
23 | CACAAGCC | -0.117
24 | ACGTCACT | -0.246
25 | AGCATAGA | -0.0758

Row | Sequence | PBM E-score
26 | ATGCCCGA | -0.235
27 | CTCACTTC | -0.247
28 | GATTTGGC | -0.235
29 | CCTCTCGC | -0.108
30 | ATCGCAAT | 0.078
31 | TAATATTA | 0.253
32 | CCACATAA | 0.0331
33 | CGGCGCAA | 0.00408
34 | TAGACCTA | -0.125
35 | CGTCAAGA | 0.0774
36 | GCGCGAGA | -0.0112
37 | CTTCTTTC | -0.18
38 | CTCGGATA | -0.00056
39 | GCTTAAGC | -0.0187
40 | ATGGGGTC | 0.284
41 | TGAGGTAA | 0.285
42 | CGTAAACC | 0.244
43 | CGAGGGCC | -0.0851
44 | AAAGGAGG | -0.123
45 | CAATAATC | 0.173
46 | ATGATCAT | 0.297
47 | CATAGACG | -0.0348
48 | ACGAACGT | -0.0259
49 | GATACACC | 0.13
50 | AGGCCGGA | -0.132

Row | Sequence | PBM E-score
51 | GAAGTCTC | -0.277
52 | CGGAAACA | 0.0399
53 | AGCCGTCA | 0.0543
54 | CGTACCAG | -0.0696
55 | TTGGACAA | 0.0638
56 | ATGTACAT | 0.244
57 | AACCATGG | 0.194
58 | AGCCACGG | -0.174
59 | ATGGTAAT | 0.239
60 | AGATCGTA | -0.105
61 | ACGCACGC | -0.149
62 | CGTAGCCA | -0.0918
63 | CAGTGCAG | -0.248
64 | CTAGGTGA | -0.196
65 | GCGCTTGA | 0.00852
66 | AAACCTGA | 0.138
67 | ACTGAAGG | -0.0723
68 | ATATTACA | 0.207
69 | AATATAAA | 0.152
70 | GACATCCC | -0.0296
71 | AGTCTAGC | -0.25
72 | GGCAGAAC | -0.172
73 | CTTGGTAA | 0.197
74 | CGGTTGGC | 0.186
75 | GAATCGTC | -0.149

Row | Sequence | PBM E-score
76 | CTCAACAA | 0.166
77 | ATTCGAGG | 0.0202
78 | ATCTTTGG | 0.0889
79 | GATCCTAA | -0.0546
80 | CCAGAGGG | 0.16
81 | AGATATGG | -0.0835
82 | AAAGCCAA | -0.0818
83 | CCCTGAAA | 0.229
84 | CCTGTAAA | 0.0433
85 | GATCGGGC | -0.22
86 | AGTTTCCC | -0.215
87 | CCACGAGC | -0.182
88 | ACTTTTAA | 0.0875
89 | CGCGAAGA | 0.0175
90 | ACTGCGGA | -0.116
91 | ACCGCGCT | 0.0454
92 | AGGAACGA | -0.259
93 | ACTCAGCT | -0.0584
94 | ATCTGCAA | -0.12
95 | CCGACTGC | -0.199
96 | ACTCTCGC | 0.0355
97 | CAGACTTC | -0.0822
98 | GCAGACAA | -0.0322
99 | AGGAGGTA | 0.0936
100 | AGCACGCC | -0.175

Row | Sequence | PBM E-score
101 | AGACCCAC | 0.252
102 | ATTTTAGA | -0.0093
103 | GGTCCAAA | 0.0248
104 | ATGGGTTA | 0.455
105 | GGCCCGAA | -0.0968
106 | AGAGAGAT | -0.0814
107 | CCGCTTCA | -0.134
108 | AGACCGAC | -0.119
109 | GCCACCGA | -0.108
110 | AGCACTGA | -0.0986
111 | ACGTTATC | -0.101
112 | ATCCTGAC | 0.0474
113 | AACAGCCT | 0.0412
114 | CCCAGGGA | -0.113
115 | CGAAATCC | -0.0787
116 | TGGAGTAA | 0.114
117 | CGCTAACA | 0.00453
118 | ATATTTTA | 0.189
119 | TCTTGCAA | 0.0407
120 | CGAGTATA | 0.0115
121 | ACATATGC | -0.165
122 | ATCCGACC | -0.0494
123 | ATCAGTAG | -0.0362
124 | ACCCCATC | 0.177
125 | ACAGTTGA | -0.0789

Row | Sequence | PBM E-score
126 | CATGGACC | -0.00589
127 | ACTGCGCA | -0.0699
128 | AATTACTG | 0.00477
129 | AGGTAAAG | 0.127
130 | CCCATAAC | 0.355
131 | AGTTTATA | 0.0659
132 | ATGGCGTC | -0.12
133 | CCATGTCG | 0.00875
134 | AGCTTCCG | -0.126
135 | CGAATTAA | 0.193
136 | AAACGTGC | -0.305
137 | ACAAGCCC | -0.177
138 | CCGGACCA | -0.0801
139 | AAGTATAT | 0.00838
140 | ACTTGCGA | 0.0666
141 | AGCCGGAG | -0.0774
142 | AGGATCGA | -0.113
143 | ACAGGCAT | -0.162
144 | CCTGAACC | 0.213
145 | GTATACAC | -0.00689
146 | GGCAGCCC | -0.00401
147 | CCATGTCA | -0.233
148 | GAAGGCAC | 0.00101
149 | CTTAGTGC | -0.0751
150 | GGGGACAC | -0.0745

Row | Sequence | PBM E-score
151 | CCTTGGAC | 0.0187
152 | AGCAAGCG | -0.192
153 | GTTGCGCA | -0.0415
154 | ATTCCGTC | -0.213
155 | GTGTCCGA | -0.0643
156 | AAGACCTT | 0.285
157 | TGTCCAAA | 0.137
158 | AGGAGGAT | -0.304
159 | GGGGGTGA | -0.167
160 | AACCCACT | 0.295
161 | CACCGGGC | 0.103
162 | AAGCCTAC | -0.0465
163 | GTTAAAAA | 0.285
164 | ATCAATTC | -0.0949
165 | CCCGCTTC | -0.134
166 | CCAGCGAG | 0.092
167 | ACCAGCCT | -0.171
168 | GCTTGTCC | -0.127
169 | CTTGGAAA | 0.0337
170 | CACGACCA | 0.161
171 | CTACCTGC | 0.01
172 | ATCCGAGA | -0.0307
